Laboratory results as given in the supplement of paper PMC10502849.
Some of the results follow. Most values come without repeats; read them as rough. Square brackets hold non-standard residues; d marks the D form. Peptide text beside a SMILES is read from it. ξ: configuration not given here. Aoe(9ξ) = N[C@@H](CCCCCC(=O)C1CO1)C(=O)O; dPip = O=C(O)[C@H]1CCCCN1

Tests used:
[1] = test system: H9 teratoma-derived LAM model cells, TSC2-/-; assay: percent SyTOX+ dead cells; higher = more cytotoxic; details: 5 µM, treatment time 72 h, culture: 3D hyaluronic acid hydrogel
[2] = test system: H9 teratoma-derived LAM model cells, WT; assay: percent SyTOX+ dead cells; higher = more cytotoxic; details: 5 µM, treatment time 72 h, culture: 3D hyaluronic acid hydrogel, genotype: WT
[3] = test system: H9 teratoma-derived LAM model cells, TSC2-/-; assay: percent of cells invaded past median invasion distance of vehicle control; LAM is lymphangioleiomyomatosis; the cells come from teratomas of the human stem cell line H9; higher = more invasion; extreme values may be limits of the assay; details: 5 µM, treatment time 72 h, culture: 3D hyaluronic acid hydrogel
[4] = test system: H9 teratoma-derived LAM model cells, WT; assay: as above; details: 5 µM, treatment time 72 h, culture: 3D hyaluronic acid hydrogel, genotype: WT
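Wherever percent SyTOX+ dead cells is given: cells seeded atop a hyaluronic acid gel crosslinked via MMP-cleavable peptides, containing vitronectin peptides and methylcellulose, imaged live by high-content microscopy with automated analysis, one technical replicate per compound.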
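Wherever percent of cells invaded past median invasion distance of vehicle control is given: live cells imaged by high content microscopy and scored with in-house automated image analysis, one technical replicate per compound in each genotype and rapamycin condition.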

| Structure (SMILES) | percent SyTOX+ dead cells ([1]; rapamycin 0 nM) [%] | percent SyTOX+ dead cells ([1]; rapamycin 20 nM) [%] | percent SyTOX+ dead cells ([2]; rapamycin 0 nM) [%] | percent SyTOX+ dead cells ([2]; rapamycin 20 nM) [%] | percent ([3]; rapamycin 0 nM) [%] | percent ([3]; rapamycin 20 nM) [%] | percent ([4]; rapamycin 0 nM) [%] | percent ([4]; rapamycin 20 nM) [%] |
| --- | --- | --- | --- | --- | --- | --- | --- | --- |
| CC(=O)c1c(O)c(C)c(O)c(Cc2c(O)c3c(c(C(=O)/C=C/c4ccccc4)c2O)OC(C)(C)C=C3)c1O [Rottlerin] | 13.8 | 8.1 | 20 | 1.71 | 0 | 30.3 | 0 | 3.08 |
| O=c1[nH]c2ccc(Cl)cc2c(N[C@@H]2CN3CCC2CC3)c1-c1nc2ccccc2[nH]1 | 42.2 | 36.2 | 12.6 | 62.1 | 0.92 | 24.4 | 1.57 | 0.77 |
| CC1=C2CC3C(CC=C4CC(O)CCC43C)C2CCC12OC1CC(C)CNC1C2C (stereo not given) [Cyclopamine, 11-deoxojervine] | 17.1 | 10.8 | 13.6 | 3.55 | 80.5 | 18.7 | 74.8 | 90.4 |
| COC[C@H]1OC(=O)c2coc3c2[C@@]1(C)C1=C(C3=O)[C@@H]2CCC(=O)[C@@]2(C)C[C@H]1OC(C)=O | 25.4 | 24 | 32.7 | 34.5 | 12.3 | 24.8 | 9.09 | 16.4 |
| Cc1ccccc1-n1c(Cn2cnc3c(N)ncnc32)nc2cccc(C)c2c1=O | 20.6 | 16.8 | 11.7 | 16.7 | 18.6 | 5.76 | 56.9 | 18.6 |
| CN(C)NC(=O)CCC(=O)O [Daminozide] | 31.4 | 28.6 | 22.3 | 24.3 | 2.27 | 2.82 | 15.1 | 8.23 |
| CCN1CCN(C(=O)Cc2ccc(Nc3ncc(F)c(Nc4ccc(C(=O)Nc5ccccc5Cl)cc4)n3)cc2)CC1 [Aurora A Inhibitor I] | 6.76 | 2.72 | 17.1 | 12.6 | 89.4 | 76.7 | 85 | 54.9 |
| COc1ccc(CC2NCC(O)C2OC(C)=O)cc1 (stereo not given) | 37 | 32.4 | 47.1 | 33.3 | 11.2 | 8.48 | 3.43 | 0 |
| O=C1Nc2ccc3ncsc3c2/C1=C/c1cnc[nH]1 [Imidazolo-oxindole PKR inhibitor C16] | 26.9 | 36.2 | 36.8 | 30.7 | 0 | 0 | 0 | 0 |
| O=C(O)CCCc1ccc(N(CCCl)CCCl)cc1 [Chlorambucil; NSC-3088; Leukeran] | 4.88 | 15 | 12 | 13.3 | 63 | 47.6 | 60.3 | 56.8 |
| Cc1cc2c(C(C)C)c(O)c(O)c(C=O)c2c(O)c1-c1c(C)cc2c(C(C)C)c(O)c(O)c(C=O)c2c1O | 8.96 | 9.27 | 11.2 | 7.1 | 59.3 | 33.6 | 41.2 | 36.8 |
| O=C(NCCN1CCC2(CC1)C(=O)NCN2c1ccccc1)c1ccc2ccccc2c1 | 9.57 | 5.76 | 8.15 | 11.7 | 80.2 | 53.1 | 84.4 | 67.8 |
| CCn1cnc2c(Nc3cccc(Cl)c3)nc(N[C@@H]3CCCC[C@@H]3N)nc21 | 33.3 | 17.2 | 34.4 | 39.8 | 4.88 | 13.9 | 0.64 | 0 |
| CCC(=O)CCCCC[C@@H]1NC(=O)[C@H]2CCCCN2C(=O)[C@H]([C@@H](C)CC)NC(=O)[C@H](Cc2cn(OC)c3ccccc23)NC1=O [Apicidin A, OSI-2040] | 10.6 | 12.6 | 14.5 | 12.7 | 55.5 | 50 | 33 | 32.8 |
| CCCC1COC(Cn2cncn2)(c2ccc(Cl)cc2Cl)O1 (stereo not given) [Propiconazole] | 12.4 | 10.1 | 6.81 | 9.09 | 52.5 | 31.7 | 65 | 44.4 |
| C/C(O)=C(\C#N)C(=O)Nc1cc(Br)ccc1Br | 11.1 | 10.7 | 9.93 | 10.7 | 12.3 | 25.8 | 41.3 | 20.4 |
| CC(C)[C@H]1C(=O)N[C@H](CO)Cc2c[nH]c3cccc(c23)N1C [(-)-Indolactam V] | 10.5 | 6.95 | 7.56 | 5.97 | 60.8 | 48.3 | 40.4 | 37 |
| c1ccc2c(c1)[I+]c1ccccc1-2 [Diphenyleneiodonium chloride, DPI] | 7.86 | 12.2 | 16.4 | 11 | 41.5 | 30.8 | 33.3 | 35.6 |
| C[C@@H]1O[C@@H](O[C@H]2CC[C@]3(C=O)[C@H]4CC[C@]5(C)[C@@H](C6=CC(=O)OC6)CC[C@]5(O)[C@@H]4CC[C@]3(O)C2)[C@H](O)[C@H](O)[C@H]1O [Convallatoxin] | 19.8 | 15.7 | 19 | 14.9 | 84.2 | 74.5 | 67.2 | 73.4 |
| C[C@]12O[C@H](C[C@]1(O)CO)n1c3ccccc3c3c4c(c5c6ccccc6n2c5c31)CNC4=O [Lestaurtinib, CEP-701, KT-5555, SPM-924] | 20 | 9.38 | 45 | 36.1 | 0 | 0 | 2.5 | 0 |
| Cn1cc(C2=C(c3cn(C4CCN(Cc5ccccn5)CC4)c4ccccc34)C(=O)NC2=O)c2ccccc21 | 90.5 | 72.6 | 81.5 | 75.3 | 37.8 | 41.9 | 27.9 | 45.9 |
| NC(=S)N/N=C/c1coc2ccccc2c1=O.[Cl][Cu][Cl] | 6.79 | 5.71 | 21.1 | 18.2 | 47.5 | 33.7 | 4.74 | 26.6 |
| COc1ccc2c(c[n+](C)c3c4cc5c(cc4ccc23)OCO5)c1OC [Chelerythrine chloride] | 8.92 | 9.42 | 35.4 | 21.1 | 66.9 | 23.6 | 6.15 | 31.1 |
| COc1ccc2c(c1)/C(=C/c1cnc[nH]1)C(=O)N2 | 14.5 | 19.5 | 27.1 | 29.4 | 2.2 | 2.54 | 4.17 | 0.62 |
| O=C1NC(=O)c2c1c1c3ccccc3[nH]c1c1[nH]c3ccccc3c21 [Arcyriaflavin A] | 76.5 | 79.5 | 82.1 | 80.7 | 8.46 | 7.14 | 2.32 | 2.15 |
| O=C(O)CNC(=O)c1c(O)c2ccccc2n(Cc2ccccc2)c1=O | 10.7 | 8.95 | 11.2 | 11.2 | 34 | 23.2 | 39.5 | 35.9 |
| CC(C)(C)C(O)(CCc1ccc(Cl)cc1)Cn1cncn1 (stereo not given) [Tebuconazole] | 8.7 | 4.01 | 8.08 | 9.72 | 60 | 41.5 | 57.5 | 45.1 |
| O=C1NC(=O)c2c1c1c3ccccc3n3c1c1c2c2ccccc2n1[C@H]1CC[C@@H]3O1 | 13.4 | 12.1 | 18.8 | 15.9 | 9.62 | 3.46 | 8.27 | 7.57 |
| O=C(CCCCC[C@@H]1NC(=O)[C@H]2CCCCN2C(=O)[C@H](Cc2ccccc2)NC(=O)[C@H](Cc2ccccc2)NC1=O)C1CO1 (stereo not given in full) [Trapoxin A, RF-1023-A] (cyclo(FF[dPip][Aoe(9ξ)])) | 45.9 | 20.2 | 27.6 | 5.02 | 2.74 | 1.56 | 0 | 0.31 |
| CN[C@@H]1C[C@H]2O[C@@](C)([C@@H]1OC)n1c3ccccc3c3c4c(c5c6ccccc6n2c5c31)C(=O)NC4 [Staurosporine] | 44.9 | 36.8 | 34.1 | 34.7 | 0 | 1.62 | 0 | 0.59 |
